Laboratory results from patent US20240270860A1.
Results are given in words; binding and its absence hold for the method and conditions named. Some binding calls cover weakened binding; strength is not graded here. Sequences can lack the tags named with a protein.

Protein sequences, listed by entry. Tags and fused reporters are not part of them. Lines headed by an entry give the natural chain unless they say otherwise; changes in a name come on top.
UniProt P20333: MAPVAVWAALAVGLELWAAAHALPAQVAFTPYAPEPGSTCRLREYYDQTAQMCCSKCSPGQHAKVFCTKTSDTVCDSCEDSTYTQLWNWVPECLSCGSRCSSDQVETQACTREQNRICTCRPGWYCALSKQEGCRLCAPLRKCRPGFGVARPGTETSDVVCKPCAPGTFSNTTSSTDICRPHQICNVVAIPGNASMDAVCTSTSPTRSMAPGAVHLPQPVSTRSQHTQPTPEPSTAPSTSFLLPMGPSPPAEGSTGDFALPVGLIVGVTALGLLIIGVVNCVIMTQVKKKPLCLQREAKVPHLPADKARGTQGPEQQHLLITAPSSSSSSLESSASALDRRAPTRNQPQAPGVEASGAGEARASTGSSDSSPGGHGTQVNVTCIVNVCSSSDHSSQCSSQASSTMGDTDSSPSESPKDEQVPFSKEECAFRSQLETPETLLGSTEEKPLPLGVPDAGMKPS

Legend:
[1] = molecular target: recombinant human TNFR2 (human) (UniProt P20333); assay: ELISA, linear peptide mapping with the full-length protein
S04072 = molecular target: T1, S04072; assay: linear peptide ELISA with TNF competition
T1 sequence (peptide): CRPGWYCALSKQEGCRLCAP

S04071 = molecular target: T2, S04071; assay: linear peptide ELISA with TNF competition
T2 sequence (peptide): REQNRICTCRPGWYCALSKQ

S04065 = molecular target: T3, S04065; assay: linear peptide ELISA
T3 sequence (peptide): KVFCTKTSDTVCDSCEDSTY

S04064 = molecular target: T4, S04064; assay: linear peptide ELISA
T4 sequence (peptide): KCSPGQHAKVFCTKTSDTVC

S04063 = molecular target: T5, S04063; assay: linear peptide ELISA
T5 sequence (peptide): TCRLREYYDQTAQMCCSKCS

S04066 = molecular target: T6, S04066; assay: linear peptide ELISA
T6 sequence (peptide): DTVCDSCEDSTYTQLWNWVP

S04079 = molecular target: T7, S04079; assay: linear peptide ELISA
T7 sequence (peptide): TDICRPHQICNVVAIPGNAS

S03931 = molecular target: T8, S03931; assay: linear peptide ELISA
T8 sequence (peptide): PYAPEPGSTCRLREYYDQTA

S04080 = molecular target: T9, S04080; assay: linear peptide ELISA
T9 sequence (peptide): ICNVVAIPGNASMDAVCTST

S04062 = molecular target: T10, S04062; assay: linear peptide ELISA
T10 sequence (peptide): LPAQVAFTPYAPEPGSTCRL

S04078 = molecular target: T11, S04078; assay: linear peptide ELISA
T11 sequence (peptide): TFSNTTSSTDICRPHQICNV

S04069 = molecular target: T12, S04069; assay: linear peptide ELISA
T12 sequence (peptide): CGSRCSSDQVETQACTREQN

S04068 = molecular target: T13, S04068; assay: linear peptide ELISA
T13 sequence (peptide): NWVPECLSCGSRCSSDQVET

S04070 = molecular target: T14, S04070; assay: linear peptide ELISA
T14 sequence (peptide): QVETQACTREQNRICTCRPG

S04081 = molecular target: T15, S04081; assay: linear peptide ELISA
T15 sequence (peptide): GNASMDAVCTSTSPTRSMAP

S04077 = molecular target: T16, S04077; assay: linear peptide ELISA
T16 sequence (peptide): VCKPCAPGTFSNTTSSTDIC

S04076 = molecular target: T17, S04076; assay: linear peptide ELISA
T17 sequence (peptide): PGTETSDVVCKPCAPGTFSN

S04067 = molecular target: T18, S04067; assay: linear peptide ELISA
T18 sequence (peptide): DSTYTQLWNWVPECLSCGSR

S04075 = molecular target: T19, S04075; assay: linear peptide ELISA
T19 sequence (peptide): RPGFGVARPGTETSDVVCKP

[2] = molecular target: recombinant human TNFR2 (human) (UniProt P20333); assay: SPR

binding [1]: binds
binding (S04072): binds
binding (S04071): binds
binding (S04065): no binding (tested: 0.1 µg/well)
binding (S04064): no binding (tested: 0.1 µg/well)
binding (S04063): no binding (tested: 0.1 µg/well)
binding (S04066): no binding (tested: 0.1 µg/well)
binding (S04079): no binding (tested: 0.1 µg/well)
binding (S03931): no binding (tested: 0.1 µg/well)
binding (S04080): no binding (tested: 0.1 µg/well)
binding (S04062): no binding (tested: 0.1 µg/well)
binding (S04078): no binding (tested: 0.1 µg/well)
binding (S04069): no binding (tested: 0.1 µg/well)
binding (S04068): no binding (tested: 0.1 µg/well)
binding (S04070): no binding (tested: 0.1 µg/well)
binding (S04081): no binding (tested: 0.1 µg/well)
binding (S04077): no binding (tested: 0.1 µg/well)
binding (S04076): no binding (tested: 0.1 µg/well)
binding (S04067): no binding (tested: 0.1 µg/well)
binding (S04075): no binding (tested: 0.1 µg/well)
binding [2]: binds
B1: antagonistic TNFR2 antibody TNFRAB1 (antibody, V domains shown)
VH: EVQLQESGGGLVKPGGSLKLSCAASGFTFSSYVMSWVRQTPEKRLEWVATISSGGSYTYYPDSVKGRFTISRDNAKNTLYLQMSSLRSEDTAMYYCARQRVDGYSSYWYFDVWGAGTAVTVSS
VL: DIVLTQSPAIMSASPGEKVTITCSASSSVYYMYWFQQKPGTSPKLWIYSTSNLASGVPVRFSGSGSGTSYSLTISRMEAEDAATYYCQQRRNYPYTFGGGTKLEIKR
